The whole screen tested about 52,000 compounds, of which about 4,300 (8.3%) were called active. No stated cut-off is given here; in the data, active means survival mostly below about 52% (no sharp cut-off); inactive means mostly above about 56%. This is one part of the list.

Among the data in PubChem BioAssay AID463173 (ICCB-Longwood Screening Facility, Harvard Medical School, 2010) are survival values, retold here.

This assay concerns DeltatarO mutant. Briefly: S. aureus survival, RN4220 and DeltatarO strains – OD600, teichoic acid synthesis inhibitors, primary screen (AID 463173). The following applies: S. aureus RN4220 wild type/DeltatarO growth, OD600, 18 h, hits give low values, screened at 18.75 µg/mL (by protocol).
Turning to `Cc1cc(C)cc(NS(=O)(=O)c2ccc3c(c2)OCC(C(=O)N2CCCC2)O3)c1` (configuration not stated), the survival is inactive: 88%.
Consider `COc1ccc2nc3oc(C(=O)Nc4cccc(C(F)(F)F)c4)cc3cc2c1`, for which the survival is inactive: 84%.
Regarding `Cc1ccc2nc(-c3ccc(C)c(NC(=O)Cc4ccccc4)c3)oc2c1`, the survival was inactive: 77%.
As for `CN(C(=O)Cn1nc(C(F)(F)F)c2c1CCC2)C1CCCCC1`, the figure is inactive: 70%; as for `Cc1nc(Oc2ccccc2C)c2oc3ccccc3c2n1`, inactive: 101%; as for `Cc1ccc(CNC(=O)c2sc3nc4n(c(=O)c3c2C)CCCC4)cc1`, inactive: 80%.
For `COc1ccc2c(c1)CC(C(=O)NCCN1CCN(c3cccc(Cl)c3)CC1)CO2` (configuration not stated), the survival is inactive: 86%.
Turning to `CCCc1ccc(OCC(=O)Nc2scc(-c3cccs3)c2C(=O)OC)cc1`, the survival was inactive: 67%.
With `O=C(c1ccc2c(c1)N(Cc1ccc(F)cc1)CCS2)N1CCN(c2ccccc2)CC1`, the survival is inactive: 74%.
As for `Cc1cc(C)c(NC(=O)c2ccc3nc(C(C)C)oc3c2)c(C)c1`, the figure is inactive: 94%; as for `CCOCCn1c(=NC(=O)c2ccc3c(c2)OCCO3)sc2cc(OCC)ccc21`, inactive: 88%.
Consider `COCC(C)NC(=O)C1=CC(c2ccc3c(c2)OCO3)=NS(=O)(=O)N1C` (configuration not stated), for which the survival was inactive: 104%.
With `Cc1ccc(Cl)cc1N1CCN(C(=O)c2cnc3c(-c4ccc(F)cc4)c(C)nn3c2C)CC1` the figure was inactive: 89%; with `O=C(Nc1ccccc1C(F)(F)F)C1CCN(c2nnc(-n3cccc3)s2)CC1`, inactive: 89%.
`CCC(C(=O)NC1CCCCC1)n1nc(C)c2sc3ccccc3c2c1=O` (configuration not stated): the survival was inactive: 78%.
As for `CCN(CC)S(=O)(=O)c1ccc2c(c1)c(=O)c(C(=O)N1CCN(c3cc(C)ccc3C)CC1)cn2C`, the figure is inactive: 71%; as for `O=C(Cn1cc(SCc2ccc(F)cc2)c2ccccc21)N1CCCC1`, inactive: 53%; as for `CCc1nnc(NC(=O)c2nc(SCc3ccc(F)cc3)ncc2Cl)s1`, active: 29%.
As for `CCC(c1nnnn1CC1CCCO1)N(Cc1ccc2c(c1)OCO2)Cc1cc2cc(C)cc(C)c2[nH]c1=O` (configuration not stated), the figure is inactive: 65%; as for `O=C(OCC1CCCO1)c1ccc2c(c1)N(Cc1c(F)cccc1Cl)C(=O)c1ccccc1S2(=O)=O` (configuration not stated), inactive: 67%; as for `Cn1ccc2c(OCC(=O)NCc3ccc(F)cc3)cccc2c1=O`, inactive: 91%.
With `Cc1ccc(C(=O)c2cn(Cc3ccccc3)c3cc4c(cc3c2=O)OCCO4)cc1` the figure was inactive: 105%.
Turning to `CCc1cccc(NC(=O)CSc2nccn2C)c1`, the survival was inactive: 70%.
As for `COc1c(Cl)cc(Cl)cc1C(=O)Nc1cccc2cccnc12`, the figure is inactive: 143%.
As for `NC(=O)C1CCN(c2nc(C3CC3)nc3c2nnn3Cc2ccccc2Cl)CC1`, the figure is inactive: 97%; as for `NNc1nc2ccccc2c(=O)n1Cc1ccccc1`, inactive: 100%; as for `COc1ccc(NCc2cccn2-c2nnc(N3CCC(C)CC3)s2)c(OC)c1`, inactive: 73%.
As for `Cc1cccc(-c2nc(S(=O)(=O)c3ccccc3)c(N3CCN(c4ccccc4)CC3)o2)c1`, the survival is inactive: 112%.
`CSc1ccc(-c2nc3cc(C)ccn3c2Nc2ccc(C)cc2)cc1`: the survival was inactive: 95%.
With `O=C(CSc1nc2c(c(=O)[nH]1)CCC2)Nc1cc(C(F)(F)F)ccc1Cl`, the survival is inactive: 76%.
With `CCc1ccc(NC(=O)C(=O)NCCc2sc(-c3ccc(C)cc3)nc2C)cc1`, the survival is inactive: 81%.
Take `CCCCCOc1ccccc1Cn1c(=O)oc2ccc(C)cc21`: the survival was active: 5%.
In the case of `Cc1ccc(Nc2c(-c3ccc(N4CCOCC4)cc3)nc3ncccn23)c(C)c1`, the survival was inactive: 80%.
Regarding `COCCNC(=O)CCSc1nc(-c2ccc(OC)cc2)cc(C(F)(F)F)n1`, the survival was inactive: 76%.
`Cc1nn(C(C)C(=O)Nc2cccc(F)c2)c(=O)c2c1sc1ccccc12` (configuration not stated): the survival is inactive: 108%.
As to `O=C(CCN1CCOCC1)Nc1ccc(Cl)cc1`, the survival was inactive: 100%.
As to `Cc1cccc(Cn2c(CNC(=O)c3ccccc3)nc3ccccc32)c1`, the survival is inactive: 64%.
As to `CC(C)OCCCNC(=O)c1c2c(nc3ccccc13)C(=O)N(C1CCCCC1)C2`, the survival is active: 25%.
As for `Cc1ccn2c(Nc3ccc(C(C)C)cc3)c(-c3ccsc3)nc2c1`, the figure is inactive: 94%; as for `CC(=O)c1ccc(NC(=O)CSc2nnc(NC(=O)NC3CCCCC3)s2)cc1`, inactive: 73%.
With `CCOC(=O)c1cc(-c2ccccc2)n(CC(=O)Nc2cc(Cl)c(OC)cc2OC)c1C` the figure was inactive: 118%; with `C=CCn1c(SCC(N)=O)nnc1-c1ccccc1O`, inactive: 98%; with `Cc1cc(C)cc(Nc2ncnc3sc4c(c23)CCCC4)c1`, active: 0%.
With `Cc1cc(C)c(NC(=O)Nc2sc3nc4n(c(=O)c3c2C)CCC(C)CC4)c(C)c1` (configuration not stated) the figure was inactive: 69%; with `Cc1cc(C)c(NS(=O)(=O)c2ccc3c(c2)NC(=O)CCS3)c(C)c1`, inactive: 76%.
As for `O=C(COc1ccc(Cl)cc1)N(Cc1ccco1)c1ccccn1`, the survival was inactive: 61%.
With `CC1CCCN(Cc2c(O)ccc3c(=O)c(-c4ccccc4Cl)c(C(F)(F)F)oc23)C1` (configuration not stated) the figure was active: 43%; with `O=C(NC1CCCC1)c1ccc(CSc2nc3cccnc3n2Cc2ccccc2F)cc1`, active: 37%; with `Cc1ccccc1Nc1ncccc1C(=O)N1CCOCC1`, inactive: 82%.
With `O=C(Cn1c(-c2cccs2)cc2ccccc21)NCCCN1CCN(c2ccc(F)cc2)CC1` the figure was inactive: 107%; with `Cc1cc(C)n(CC(=O)Nc2nc(-c3ccccc3)cs2)n1`, inactive: 72%; with `CCOC(=O)c1cnn2c(C(F)(F)F)cc(-c3ccc(Br)cc3)nc12`, inactive: 102%.
With `COc1ccc(-c2cnc(C)o2)cc1S(=O)(=O)Nc1cccc(C(F)(F)F)c1` the figure was inactive: 80%; with `CCOC(=O)c1cnc2ccc(OC(F)(F)F)cc2c1Nc1ccccc1C(=O)O`, active: 37%; with `NCCCc1nc2ccccc2[nH]1`, inactive: 95%.
As for `Cc1ccc(NC(=O)CCCN2C(=O)COc3ccc(C)cc32)c(Cl)c1`, the survival is inactive: 121%.
With `COc1cccc(/C=C/c2nc(C#N)c(N3CCCCCC3)o2)c1` the figure was inactive: 61%; with `Cc1cccc(CNC(=O)CCCN2C(=O)c3cccnc3Oc3ccccc32)c1`, inactive: 94%.
`COc1ccc(-c2noc(-c3ccc(NCc4ccco4)c([N+](=O)[O-])c3)n2)cc1OC`: the survival was active: 43%.
As for `CCc1ccc(N2CC(c3nc4ccccc4n3Cc3ccccc3C)CC2=O)cc1` (configuration not stated), the survival was active: 52%.
As for `CCOc1ccc(C(=O)NCCc2sc(-c3cccc(F)c3)nc2C)cc1OCC`, the survival is inactive: 72%.
With `O=C(Nc1ccc(OCc2cc(=O)n3c4c(sc3n2)CCCC4)cc1)c1ccc(F)cc1` the figure was inactive: 76%; with `Cc1sc2ncn3ncnc3c2c1C`, inactive: 89%; with `Cc1ccccc1-c1noc(CSc2nc(-c3ccc(F)cc3)cc(=O)[nH]2)n1`, active: 37%.
As for `COc1ccc(-n2nnnc2SCC(=O)NCCc2ccccc2)cc1`, the figure is inactive: 53%; as for `COC(=O)Cc1c(C)c2ccc3c(c2oc1=O)CN(Cc1ccc(C)cc1)CO3`, inactive: 110%.
With `NC(=O)C1CCN(c2ncnc3c2cnn3-c2cccc(Cl)c2)CC1` the figure was inactive: 105%; with `CCc1ccccc1NS(=O)(=O)c1ccc2[nH]cc(C(=O)NC3CCCC3)c(=O)c2c1`, active: 33%; with `O=C(O)CC1=C(c2ccc(F)cc2)CCC1=O`, inactive: 114%.
On to `Cc1ccc(NC(=O)Cn2nc(C(F)(F)F)c3c2CCC3)cc1C`, for which the survival was inactive: 83%.
`CC(C)COc1ccc(C(=O)Nc2onc3c2CCCC3)cc1`: the survival was inactive: 103%.
Turning to `CCOc1ccc(CCNC(=O)CCn2c(=O)c3cccn3c3ccc(F)cc32)cc1`, the survival is inactive: 50%.
Take `CC(=O)Nc1cccc(-c2nnc(SCC(=O)c3ccc([N+](=O)[O-])cc3)o2)c1`: the survival was inactive: 130%.
Take `CCC1CCCCN1C(=O)COc1ccc(F)cc1` (configuration not stated): the survival is inactive: 76%.
For the compound `COc1ccc(OC)c(CNC(=O)c2cnc(N(C)C)nc2)c1`, the survival is inactive: 71%.
As for `CCOC(=O)CSc1nc(-c2ccc(OC)cc2)cc(C(F)(F)F)c1C#N`, the survival was inactive: 76%.
As for `O=C(CSc1oc(-c2cccs2)nc1S(=O)(=O)c1ccccc1)Nc1ccc(F)cc1`, the figure is inactive: 55%; as for `CN(C(=O)CSc1nc2ccc(NC(=O)c3ccccc3)cc2s1)c1ccccc1`, inactive: 64%; as for `Cc1ccc(C2=NN(CCC(=O)NCCc3cccc(C)c3)C(=O)CC2)cc1`, inactive: 98%.
With `COc1ccc(Cn2c(NCC(C)C)nc3c2c(=O)n(C)c(=O)n3C)cc1` the figure was inactive: 49%; with `O=C(Cn1nc2c(cc1=O)CCCC2)NCc1ccccc1`, inactive: 105%; with `COc1ccc(-n2nc(C(=O)N3CCN(c4cccc(C)c4)C(C)C3)c3c4ccccc4n(C)c3c2=O)cc1Cl` (configuration not stated), inactive: 90%.
Take `COc1cccc(-n2c(=O)c3c4c(sc3n(Cc3ccccc3C#N)c2=O)CCCC4)c1`: the survival is inactive: 75%.
Take `Cc1ccccc1-c1noc(-c2ccc(NC3CCCC3)c([N+](=O)[O-])c2)n1`: the survival is inactive: 66%.
With `O=S(=O)(c1ccc2nc(Nc3ccc(Br)cc3F)ccc2c1)N1CCCC1` the figure was inactive: 117%; with `CCOC(=O)c1ccc2c(c1)C(=O)N(c1ccccc1OC)C2=O`, inactive: 80%.
As for `Cc1ccc2oc(C(=O)N(Cc3ccc(N(C)C)cc3)CC3CCCO3)c(C)c2c1` (configuration not stated), the figure is inactive: 93%; as for `CCOC(=O)c1c(NC(=O)CSc2cn(CCNC(=O)c3cccc(C(F)(F)F)c3)c3ccccc23)sc2c1CCC2`, inactive: 75%.
As for `COC(=O)Cn1cc(C2C(C#N)=C(N)OC3=C2C(=O)CC(C)(C)C3)c2ccccc21` (configuration not stated), the figure is inactive: 98%; as for `O=C(NCCc1ccccc1)c1ccc2nc(N3CCCCC3)sc2c1`, inactive: 88%; as for `CCOc1ccc(NC(=O)c2sc3nc4c(c(-c5ccccc5)c3c2N)C(=O)CC(C)(C)C4)cc1`, inactive: 49%.
As for `Cc1ccc(S(=O)(=O)c2cnc(SCC(=O)Nc3ccc4c(c3)OCCO4)[nH]c2=O)cc1Cl`, the survival was inactive: 75%.
